The structures appear in SMILES notation. This is one part of the list.

For this assay, the system named is S. aureus RN4220. Kind of assay: growth inhibition call (relative growth <= 0.2). The settings on record: 50 µM.
`CC(C)c1ccc2c(c1O)CCC1C3=C(CCC21C)C(=O)OC3` (configuration not stated): the growth inhibition call is “inactive”.

In the case of `Cc1nc(N2CCN(C)CC2)ccc1N`, the growth inhibition call was “inactive”.

As for `NC(=O)CN1C[C@@H](O)CC1=O`, the growth inhibition call is “inactive”.

Turning to `C[C@H]1CN([C@@H](C)CO)C(=O)CCCn2cc(nn2)CO[C@H]1CN(C)C(=O)Oc1cccc2ccccc12`, the growth inhibition call was “inactive”.

Take `COC(=O)C1CC(OC(C)=O)C(=O)C2C1(C)CCC1C(=O)OC(c3ccoc3)CC12C` (configuration not stated): the growth inhibition call is “inactive”.

As for `Br.CN1C2CC(OC(=O)C(CO)c3ccccc3)CC1C1OC12` (configuration not stated), the growth inhibition call is “inactive”.

For the compound `C[C@@H]1CN([C@@H](C)CO)C(=O)CCCn2cc(nn2)CO[C@@H]1CN(C)C(=O)Oc1ccc2ccccc2c1`, the growth inhibition call was “inactive”.

For `C1CCN(C[C@H]2CO[C@]3(CNCCOC3)C2)C1`, the growth inhibition call was “inactive”.

Take `COc1cc2c(cc1OC)C1C(=O)c3ccc4c(c3OC1CO2)CC(C(C)C)O4` (configuration not stated): the growth inhibition call is “inactive”.

With `C[C@@H](N)Cc1ccc(O)cc1`, the growth inhibition call was “inactive”.

As for `CC(C)(C)[C@H]1CC[C@@]2(CC1)C[C@@H](C[Si](C)(C)C)OO2`, the growth inhibition call was “inactive”.

In the case of `CNC(=O)Oc1cccc2ccccc12`, the growth inhibition call was “inactive”.

For the compound `CN(CC[C@H](N)CC(=O)N[C@H]1C=C[C@@H](n2ccc(N)nc2=O)O[C@@H]1C(=O)O)C(=N)N`, the growth inhibition call is “inactive”.

Turning to `C[C@@H]1CN([C@H](C)CO)C(=O)CCCn2nncc2CO[C@H]1CN(C)C(=O)Oc1ccc2ccccc2c1`, the growth inhibition call is “inactive”.

Regarding `COc1ccc(OC(=O)N(C)C[C@H]2OCc3ccccc3-c3c(n(C)c4ccccc34)C(=O)N([C@@H](C)CO)C[C@H]2C)cc1`, the growth inhibition call is “inactive”.

In the case of `CN1C(=O)[C@]23CC4=CC=C[C@H](O)[C@H]4N2C(=O)[C@@]1(CO)SS3`, the growth inhibition call was “inactive”.

Take `C=C(C)c1cc2cc(C(C)=O)c(O)cc2o1`: the growth inhibition call was “inactive”.

With `CC(O)(CS(=O)(=O)c1ccc(F)cc1)C(=O)Nc1ccc(C#N)c(C(F)(F)F)c1` (configuration not stated), the growth inhibition call was “inactive”.

Consider `CN1C(=O)C(O)N=C(c2ccccc2)c2cc(Cl)ccc21` (configuration not stated), for which the growth inhibition call is “inactive”.

In the case of `O=C1C2CCN(CC2)C1(CO)CO`, the growth inhibition call is “inactive”.

For the compound `Cc1o[nH]c(=O)c1C[C@@H](N)C(=O)O`, the growth inhibition call is “inactive”.

Turning to `CC=C(C)C(=O)OC1CC(OC(C)=O)C2(C(=O)OC)COC3C2C12COC(O)(C(=O)OC)C2C(C)(C12OC1(C)C1CC2OC2OC=CC21O)C3O` (configuration not stated), the growth inhibition call was “inactive”.

These data come from the antibiotic and cytotoxicity screens of Wong et al. (2023).
